# Test results published in the supplement of paper PMC3334620.
# The full ranking holds about 33,000 sequences; the median of “E-score (-0.5 to 0.5)” is about -0.054, and the highest 2% start at about 0.35. The list shows a part of the results.
# Target: T1, Stb5 (UniProt P38699)
# T1 sequence: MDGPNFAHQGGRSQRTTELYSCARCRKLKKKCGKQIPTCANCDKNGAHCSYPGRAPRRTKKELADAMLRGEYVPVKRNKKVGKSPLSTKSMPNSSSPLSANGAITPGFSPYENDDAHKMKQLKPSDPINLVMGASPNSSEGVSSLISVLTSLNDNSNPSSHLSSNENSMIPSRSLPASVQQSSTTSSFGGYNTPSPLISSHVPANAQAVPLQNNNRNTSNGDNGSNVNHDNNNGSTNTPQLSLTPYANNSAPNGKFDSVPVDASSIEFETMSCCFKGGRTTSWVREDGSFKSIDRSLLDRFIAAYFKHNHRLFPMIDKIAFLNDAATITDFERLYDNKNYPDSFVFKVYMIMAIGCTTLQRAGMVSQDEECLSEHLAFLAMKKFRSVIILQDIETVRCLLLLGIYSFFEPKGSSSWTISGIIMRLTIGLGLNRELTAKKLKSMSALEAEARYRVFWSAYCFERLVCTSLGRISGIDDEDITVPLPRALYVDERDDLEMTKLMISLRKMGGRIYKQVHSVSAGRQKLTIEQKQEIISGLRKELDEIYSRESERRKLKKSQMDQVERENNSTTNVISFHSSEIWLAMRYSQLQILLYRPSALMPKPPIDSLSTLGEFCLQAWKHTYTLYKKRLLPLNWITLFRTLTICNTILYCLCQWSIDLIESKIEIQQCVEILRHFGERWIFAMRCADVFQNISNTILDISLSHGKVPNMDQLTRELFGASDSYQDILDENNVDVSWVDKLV
# Experiment: PBM E-score (8-mer binding enrichment) (E-score (-0.5 to 0.5)); higher = stronger / more preferred TF binding; most listed sequences are background and not binding sites
# Conditions: protein concentration: 200 nM; construct: GST-full length
# Procedure, shortened: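 For each ungapped eight-base word taken together with its reverse complement, the Universal PBM Analysis Suite assigned an E-score. Binding data came from GST-tagged yeast transcription factors, applied at about 100-200 nM, on universal all-10-mer Agilent arrays made double-stranded by primer extension. Fluorescent anti-GST marked bound protein, and scans were normalised with masliner.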
row,Sequence,PBM E-score
1,ACGCCCCT,-0.156
2,AGAGTGAA,-0.172
3,GCAACAAA,-0.0939
4,CGAAGCTA,-0.0903
5,CGCCTCTA,-0.0163
6,CCGACAGA,0.345
7,CCCCACAA,-0.129
8,ATGCTTGC,-0.272
9,ACATTACG,-0.0931
10,AGGATCCT,-0.175
11,CTGTACAG,-0.16
12,CTTTGGGA,-0.0262
13,AACTTATC,-0.0603
14,ATCACCCC,0.296
15,AGCCCAGA,-0.178
16,CTAAAAAC,-0.102
17,CCTAGCCG,0.201
18,GCGCGTCC,-0.048
19,TCGTGTCA,-0.132
20,ACTGATTA,-0.201
21,CCCTGCGC,-0.00976
22,ACGTTAAA,-0.0243
23,AAACTATG,-0.186
24,CCACGTAG,-0.206
25,CGTTAAAG,-0.0182

row,Sequence,PBM E-score
1,CGTGCTTC,-0.0683
2,GCGCTTCA,-0.031
3,AAGACCAA,-0.0734
4,AAGGGGCG,0.0495
5,GAGACTGC,-0.155
6,CATTTCTC,-0.0296
7,GCACTGCC,-0.00913
8,TGAGAAAA,-0.212
9,AACCCCCA,-0.0755
10,CAGCGGCC,0.244
11,AAACCGAT,0.121
12,GCGGCTCA,0.0543
13,CGTTATAG,0.0772
14,ATGTGGTG,-0.0674
15,ACAACAGA,-0.257
16,CGCACCTA,0.207
17,TACCCGAA,0.0648
18,ACATATCG,-0.043
19,CGTACTTC,0.083
20,ATAGGCAG,-0.225
21,GAGGTTCA,-0.0881
22,AGGTGGGA,-0.176
23,AATAAACA,0.0948
24,ACCGCTGA,0.255
25,GGCATATA,0.285

row,Sequence,PBM E-score
1,GTTCCAAA,-0.0887
2,CTAGGGTA,-0.137
3,ACCTCGAC,-0.207
4,AATCGGTG,0.405
5,AATAGCAG,-0.0777
6,AGGACACC,0.01
7,ATTCTATC,-0.172
8,GATCATGC,-0.195
9,ATCTTTGA,-0.157
10,GCCGACAA,0.275
11,AAGCCCGT,0.417
12,GTCTTGAA,-0.118
13,AAGACTAG,-0.389
14,CTTCAGCA,-0.248
15,TAAAAACA,-0.0391
16,ACCCGATG,0.212
17,GCACAGCC,-0.0626
18,CCAAACGC,-0.103
19,TGGGTAAA,-0.0212
20,CGGCGACA,0.316
21,ACGTTGTG,-0.136
22,AATGGGAG,-0.172
23,GACTCCGA,0.304
24,GAGAAATC,0.0252
25,ACGTCTCC,-0.172

row,Sequence,PBM E-score
1,CTGATTCC,-0.141
2,GAGGGCGA,-0.0578
3,CAGAGGTC,0.0405
4,CACGCCAC,-0.251
5,AAGCACGA,-0.143
6,AAAACAAA,0.0144
7,CGTCACGC,0.0357
8,CCCGATCC,0.243
9,AATAGTTG,-0.103
10,GCATTTAC,-0.185
11,ACACCAAA,-0.077
12,GCTGGAAC,-0.0574
13,GCACGTGC,0.164
14,CGGATTCC,0.17
15,AGGTAACC,-0.0413
16,CGAGGAGA,-0.107
17,ACAGCGCG,0.251
18,ATCTGTGC,-0.247
19,AGGAAGTC,-0.209
20,AAGGCAAG,-0.14
21,GCCCGACC,0.306
22,CGCGCCTC,0.0389
23,AGTAATGA,-0.141
24,AGTAGATA,-0.0713
25,AAGTCAGT,-0.0794

row,Sequence,PBM E-score
1,AGTTGCCC,-0.184
2,GGGAAAAA,0.221
3,AGCCCACC,0.104
4,ACATTGAT,-0.162
5,TAGTCAAA,-0.148
6,CATTGAGC,-0.032
7,ACGGTCCT,0.276
8,CGAAGAGC,0.16
9,CGATCTTA,0.241
10,TTACGGAA,0.022
11,CCGCGTAA,0.222
12,ATGCGCTA,-0.0438
13,CTTAAGAC,0.22
14,AACCGTGT,-0.115
15,AGTGCCGG,0.407
16,AAACCCAT,-0.0199
17,GTTTGCCA,-0.0333
18,ACGAGACG,0.047
19,ATGATGGG,-0.133
20,GCGTCAAC,0.165
21,AGCTTGAT,-0.206
22,CACTAAGC,-0.127
23,ATAGCAAG,-0.0438
24,CACGCAAG,-0.164
25,ACTGCACC,-0.0781

row,Sequence,PBM E-score
1,GTTAGTCA,0.0698
2,CGGGGACA,0.415
3,AAAATCCG,0.345
4,ATACTATA,0.146
5,AAAATCGA,-0.207
6,GCGTCTGA,-0.0757
7,CTGAGGCA,-0.316
8,AACGATAT,-0.176
9,CGATGCGC,0.0858
10,CGTAAAAG,0.0294
11,CAACTCAA,-0.0921
12,CACGAGAG,-0.108
13,AATGGGAT,-0.00508
14,TCAGCTAA,-0.245
15,CTAATCTC,0.0426
16,GACCTGAA,-0.0099
17,CGCATGTC,0.0499
18,GATACATA,-0.0598
19,CGGAACCG,0.107
20,CCTTCCCC,-0.152
21,CGTAACCA,-0.283
22,ACACCAGA,-0.0876
23,CCAAGGGC,-0.152
24,AAACGTTA,-0.0679
25,CGGTTTAC,0.058

row,Sequence,PBM E-score
1,CGATCTCC,0.0163
2,TTTAGAAA,-0.066
3,AGTCCTGA,-0.134
4,GCTCTATA,0.132
5,AATGGACT,-0.127
6,CTGACTGA,-0.259
7,AAAGTGGG,-0.015
8,AATTATAT,0.158
9,AGAACAAA,0.207
10,CGCGCGAG,0.108
11,CAGCTAGC,-0.0953
12,ACATGCAG,-0.0832
13,CTACCGAG,0.107
14,CTTTAATA,0.244
15,CGTCGAAC,-0.0581
16,AGACAAAC,0.0348
17,CTAGTGGC,-0.191
18,AATAGGCC,0.115
19,AACAGGTA,-0.0862
20,ATGAGGTC,-0.171
21,AGTGGTCA,-0.31
22,CAAACGAA,-0.241
